Laboratory results as given in the BET-seq Pho4 binding data (Le et al. 2018).
The other results are listed elsewhere or left out. The energies were worked out here from pooled read counts, against the library average; single values are noisy.

target: T1, Pho4 (S. cerevisiae) (UniProt P07270); experiment: relative binding free energy (BET-seq); higher = weaker binding; conditions: reference: library average
T1 sequence: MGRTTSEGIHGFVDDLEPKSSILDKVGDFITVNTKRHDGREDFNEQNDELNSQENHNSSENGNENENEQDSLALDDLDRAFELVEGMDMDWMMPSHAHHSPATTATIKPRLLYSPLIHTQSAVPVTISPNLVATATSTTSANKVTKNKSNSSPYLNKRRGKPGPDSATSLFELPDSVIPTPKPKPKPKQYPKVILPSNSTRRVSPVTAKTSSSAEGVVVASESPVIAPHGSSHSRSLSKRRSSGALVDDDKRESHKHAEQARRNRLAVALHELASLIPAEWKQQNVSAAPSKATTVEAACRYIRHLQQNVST

Sequence | relative binding free energy [kJ/mol]
TAGTTCACGTGTTTTT | 1.38
GCGGTCACGTGATAGG | 1.13
AATTGCACGTGGATAT | 0.377
ACAAGCACGTGTTGGT | -0.126
ATGAGCACGTGTGATA | -0.377
GGTGGCACGTGACGGC | 0.544
GAGTGCACGTGGTTGG | -0.335
CGAGGCACGTGGGAGT | -0.544
TAATTCACGTGTGTTC | 1.38
CGGAGCACGTGGGAGT | -0.795
CGGGTCACGTGGCTGT | -0.126
TGGTTCACGTGGTTCG | 1
CAGGGCACGTGGTGCG | -0.418
TTACGCACGTGGTGGC | -0.628
TTGAGCACGTGTCTTG | -0.502
TAGAGCACGTGATGAG | 0.544
TTGGTCACGTGTACTA | 0.167
ATATGCACGTGTTCGA | 0.335
GGACGCACGTGAGCGT | 1.09
ATCGTCACGTGATTGG | 1.17
TTTCTCACGTGGGATT | 0.335
AGGGTCACGTGGTCAA | 0.209
TTCTTCACGTGAGCGG | 1
GAAGGCACGTGTTTTA | -0.293
TTGTGCACGTGAGTAG | 0.711

Sequence | relative binding free energy [kJ/mol]
GGTGTCACGTGTGGAA | 0.879
ATCGGCACGTGTAGGG | -0.335
CTGTGCACGTGATGGC | 0.502
ACGGACACGTGGATGT | 0
CTGGACACGTGATTGT | 0.669
GGGAGCACGTGTGAAT | -0.251
AGGTTCACGTGAAGTC | 1.42
CTGGGCACGTGGCTGA | -0.879
TTATTCACGTGCCAGT | 0.879
TGGTCCACGTGGACGT | 0.293
GTTAACACGTGTGGAT | 0.586
GTGTTCACGTGGCTTT | 1
GGGGTCACGTGGTATT | 0.167
CTGTTCACGTGGGCTA | 0.502
CGTTTCACGTGATTTA | 1.42
GGTATCACGTGTGTAG | 1
GGTGACACGTGAGTCG | 1.34
GAGTACACGTGGTTTC | 1.26
AGTTACACGTGCGTGA | 0.167
TGTGGCACGTGAACCG | 0.795
TGATACACGTGATTAT | 1.05
TCTTTCACGTGATATG | 1.09
GGCTCCACGTGGGAGG | -0.502
TTAATCACGTGTGTGG | 0.544
GTTAGCACGTGGCCTG | -0.628

Sequence | relative binding free energy [kJ/mol]
TTATTCACGTGCGCGG | 0.293
GAAGACACGTGGTGAT | 0.293
ATAGACACGTGGATGT | 0.628
TATCGCACGTGAGTTG | -0.126
GGTTGCACGTGGGAGT | 0.167
TTCAGCACGTGGTGAG | -0.586
AAGGTCACGTGTCAAG | 1.21
TGGGCCACGTGAGTTA | 0.586
TGTTGCACGTGTGTCA | -0.126
TTTGTCACGTGTCAGA | 0.209
CATGGCACGTGGTCTG | -0.962
GCGGCCACGTGGTTGT | 0.0418
CTATGCACGTGGAGGT | 0.251
TTAGACACGTGTTTGG | -0.126
TCTTGCACGTGGATTT | 0.586
GCTATCACGTGGGATG | 0.0837
TATTTCACGTGGGGAT | 1.26
TTAATCACGTGAAGGT | 1.34
GTTCTCACGTGGTGGC | 0.293
TGGATCACGTGGGGAC | 0.126
TTGGTCACGTGTGCAT | 0.502
GATAGCACGTGGCTTG | -0.377
GGACACACGTGGTTTT | 0.293
ATAATCACGTGTGAAT | 0.502
GGGCTCACGTGGGTAG | 1.13

Sequence | relative binding free energy [kJ/mol]
TGGTTCACGTGGGCAC | 0.46
GTGTGCACGTGTTGTC | 0.0418
CAAGTCACGTGTTGTG | 0.335
GTAAACACGTGAGTAG | 1.13
CTTTGCACGTGAGTGG | 0.586
TGTGTCACGTGCACTT | 0.126
GCTATCACGTGAGTGT | 0.586
ATGTGCACGTGCTTGT | -0.377
GCGAACACGTGGGAGG | -0.335
GAAGTCACGTGTGTTT | 1.09
TTCATCACGTGTTAAT | 0.209
AGGTCCACGTGGGGTA | -0.502
AATTGCACGTGTAGTC | 0.46
TAGTGCACGTGCGGTA | -0.377
GAGTGCACGTGGGCTT | -0.377
AGATGCACGTGGTTGC | -0.46
GGTTACACGTGTTAAG | 0.544
TGCGTCACGTGGATGA | -0.377
GAGGACACGTGAGTGT | 1.13
GGTGCCACGTGGTAGC | -0.335
TCGTTCACGTGTACGT | 1.21
TGTTACACGTGTGTGT | 0.293
TAGTACACGTGGGTAC | -0.418
TAGTCCACGTGGGTGC | 0.0418
TTGGGCACGTGGTTCA | -0.46

Sequence | relative binding free energy [kJ/mol]
TTGGGCACGTGAGTGC | 0.586
CGGCGCACGTGTGTGT | -0.544
GGGAGCACGTGGGCTT | -0.335
TTTGGCACGTGTCAAT | -0.92
CGGGTCACGTGGGATT | 0
ATTATCACGTGTGGCA | 0.795
AATGGCACGTGAGTTA | 0.879
CAAGGCACGTGGGTGT | -0.962
TAGGGCACGTGTGCTG | -0.628
ATGGCCACGTGGGGTA | -0.753
TGTTTCACGTGACTAG | 1.3
GGGGGCACGTGATCTG | -0.293
GATTTCACGTGCCGGT | 1.63
TATGTCACGTGTATGG | 0.335
TGTAACACGTGGGTCG | -0.46
TTTAGCACGTGGGTAT | -0.377
CTTTTCACGTGGTAGG | 1.17
TGTCGCACGTGCTTTT | -0.502
GGTAGCACGTGATTGA | 0.586
CTGCTCACGTGTGTGG | 0.544
GGGTTCACGTGGATTT | 1.38
TTTACCACGTGTTAAG | 0.628
TAGATCACGTGTTTTT | 0.92
TTGGTCACGTGCCTTA | 0.251
TTCAGCACGTGTTCGT | -0.293

Sequence | relative binding free energy [kJ/mol]
TGCTGCACGTGGAGTG | -0.251
TAGCGCACGTGTGTAA | -0.418
ATTCTCACGTGTGGTG | 0.544
GTGTACACGTGAGAGT | 0.753
TATTGCACGTGCGGTG | -0.418
TTTTGCACGTGGAGAT | -0.251
TTAGTCACGTGCATGA | 0.126
TGGGACACGTGAGGCA | 0.962
TACGTCACGTGTGGAG | 0.753
TTTTTCACGTGAAGGA | 1.84
AATCGCACGTGTGTAT | 0.628
GGTGGCACGTGGGCGG | -0.795
TACGGCACGTGTGCGG | -0.46
TTGTTCACGTGTATAT | 0.628
GTGCGCACGTGTGATT | 0.335
GATTCCACGTGGTGGG | 0.167
TATATCACGTGGTGGC | 0.251
TGGCGCACGTGCTGTG | -1
GGTTACACGTGATGGG | 1.51
CCGGGCACGTGCTTGG | -0.377
TGTTACACGTGCACGG | 0.377
